Among all 150,000 compounds or so, about 540 (0.36%) showed an effect of 50% or more. Some of the results follow.
test system: Plasmodium falciparum; assay: Primary screen in NF54 nanoGlo assay, in single point, at 2uM, 72h; a lower Z score goes with more inhibition; type: functional, Erythrocyte; details: timepoint 72 hour

Row | Structure (SMILES) | % Inhibition [%] | Z score
1 | O=C(NCCCCN1CCCC1)c1cccc(-c2ncccn2)c1 | -6 | 0.94
2 | O=C(NC1CC1)[C@@H]1CCCN1S(=O)(=O)c1ccc2c(c1)CCC2 | -13 | 1.99
3 | Cc1ccc(CN(Cc2ccc(F)cc2)Cc2nc(C(=O)N3CCN(c4cccc(Cl)c4)CC3)cs2)cc1 | -11 | 1.11
4 | CC[C@H](NC(=O)N1CCN(c2nncn2C)CC1)c1csc(C)c1 | -17 | 2.71
5 | Cc1noc(C)c1CN1C(=O)[C@@H]2CC[C@H]1CN(c1ncccc1C(N)=O)C2 | -14 | 1.67
6 | Cc1csc(C2CCCN(S(=O)(=O)N3CCC4CCCCC4C3)C2)n1 (configuration not stated) | -4 | 0.6
7 | C[C@@H](C(=O)N(C)C)S(=O)(=O)N(c1cccc(F)c1)C1CCCC1 | -12 | 1.18
8 | O=C(NC1CCC1)c1coc(COc2cccc(F)c2)n1 | -1 | 0.13
9 | N#Cc1csc(CNc2nnc([C@@H]3CCCO3)o2)c1 | -7 | 0.93
10 | O=C1C[C@H](CNC(=O)N2CCC(c3c(Cl)cccc3Cl)CC2)CN1 | -20 | 2.04
11 | C=CCN(C(=O)c1coc(-c2cccnc2)n1)c1nc2c(s1)CCCC2 | 0 | -0.01
12 | CCc1nc(-c2cc(NC(=O)CNC(=O)c3ccc(C)cc3)c(C)s2)no1 | -7 | 0.71
13 | CCC[C@@]1(C2CC2)NC(=O)N(Cc2ncnn2C)C1=O | -4 | 0.69
14 | CN(C)CCN(C)c1ccc(Br)cc1NCc1ccnn1C | 8 | -1.04
15 | CCc1cc(C(=O)N(C)C[C@]2(c3ccccc3)CC2(C)C)cc(=O)[nH]1 | 0 | 0.05
16 | Cc1cc(CC(=O)N[C@H]2CC(=O)N(c3ccccc3)C2)n[nH]1 | -12 | 1.26
17 | CC(c1cnn(C)c1)c1nc(C2CCOC3(CCCC3)C2)no1 (configuration not stated) | -2 | 0.3
18 | Cc1cccc(N2CCN(C(=O)CC3CCN(C(=O)c4[nH]c(C)cc4C)CC3)C[C@@H]2C)c1 | -3 | 0.24
19 | CN1C(=O)c2cccn2C[C@@H]1CNS(=O)(=O)c1ccc(F)cc1 | -14 | 2.63
20 | N#Cc1cc2n(n1)CCN(CCCCOc1ccccc1)C2 | 4 | -0.76
21 | CCCc1cc(C(=O)N(C)[C@@H](C)c2cc(-c3ccccc3)[nH]n2)n(C)n1 | -7 | 0.9

Row | Structure (SMILES) | % Inhibition [%] | Z score
22 | Cc1occc1C(=O)N(C)[C@@H](C)C1CC1 | -14 | 1.52
23 | O=C(O)CN(C1CCC1)S(=O)(=O)c1ccc2c(c1)CCC2 | 20 | -2.51
24 | OC(CN1CCOC2CCCCC21)Cn1cccn1 (configuration not stated) | -5 | 0.7
25 | CC(C)(C)OC(=O)N1CCC2(CC(NCc3ccccc3)c3ccccc3O2)C1 (configuration not stated) | -9 | 1.1
26 | COc1cc2c(c(OC)c1OC)CCN(C(=O)c1ncc(C)cc1O)CC2 | -3 | 0.25
27 | Cc1cc(N2C(=O)C(C)(C)CS2(=O)=O)ccc1S(=O)(=O)N[C@H]1CCS(=O)(=O)C1 | -1 | 0.17
28 | C[C@@H](C(=O)Nc1ccc2c(c1)OCCO2)N1C(=O)c2ccncc2C1=O | -5 | 0.69
29 | C[C@@H](CCc1ncnn1-c1ccc2c(c1)CCC2)N1CCN(C)CC1 | -4 | 0.47
30 | Cc1ccc(N2CC[C@@H](C(=O)NCc3ccccn3)C2=O)cc1Cl | -11 | 1.39
31 | O=C(NCc1cccc(Cl)c1)c1cccn1-c1cccnc1 | -7 | 0.71
32 | CN(CC(F)(F)F)C(=O)CNc1cccc(F)c1C#N | 3 | -0.45
33 | CC1CN(S(=O)(=O)NCC2CCOC2)CC(C)O1 (configuration not stated) | -3 | 0.5
34 | O=C1CN(C(=O)N[C@@H](Cc2ccccc2)C(=O)Nc2ccc(F)c(Cl)c2)c2ccccc2N1 | 0 | -0.05
35 | CCc1noc(C)c1C(=O)N1CCC2(CCCCC2)C1 | -6 | 0.64
36 | Cc1nc(C(C)(C)NCc2nnc(-c3ccco3)o2)sc1C | -8 | 0.7
37 | CCC(CC)[C@@H](C(=O)Nc1ccc2nnc(C(C)C)n2c1)N1CCOCC1 | -5 | 0.98
38 | COCCc1nc(Cn2ccccc2=O)n(CCc2cnc[nH]2)n1 | -8 | 1.34
39 | O=C(CN(C[C@H]1CCCO1)C(=O)c1cncc(F)c1)N1CCCC1 | -2 | 0.31
40 | O=C(c1ccc(Br)cc1)[C@@H]1[C@@H]2CCCN2[C@]2(C(=O)Nc3ccc(Cl)cc32)[C@@]12C(=O)Nc1ccccc12 | 28 | -3.56
41 | CCOc1cc(Br)c(CC(=O)Nc2cccc(COCC3CC3)c2)cc1OCC | -6 | 1.01
